# Laboratory results taken from the supplement of paper PMC11417369.
# This is one part of the list.
# Tested on: PfSIP2 AP2 domain 1 (GST-tagged)
# Experiment: gcPBM binding intensity (ln(normalized median fluorescence intensity)); higher = stronger DNA binding
# How it was run: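 Binding intensity is the highest Masliner-normalised natural-log median intensity over replicate spots in either probe orientation. To obtain it, GST-tagged P. falciparum DNA-binding domains made in E. coli were incubated for 1 h on an Agilent 4 × 180k array of primer-extended double-stranded 36-bp intergenic genomic probes plus negative controls. Detection used Alexa488 anti-GST antibody with scanning at 488 nm.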
row,Sequence,gcPBM binding intensity (ln)
1,GTATGTATGTATATATGTACACATTATTATTTAATG [XGTACX_site5802],7.49
2,GAGAAAAGGAAATTCACACATATAAAGAAAGATCTA [CACACA_site5420],6.64
3,AGTTTATTTGTAAAAAGTACATATTTAAGAAAACTT [XGTACX_site2318],6.96
4,TTCTAACTCTAACAAGTGCAATATATATACATAATA,8.34
5,AAATTTGGCAAACACACACACACACCCACACCCACA [CACACA_site8095],6.95
6,AATATATATCATCACACACACATACATAAATATATA [CACACA_site184],7.22
7,TATATTATATATATGTGTACATATAAATGTAACAAA [XGTACX_site5025],7.28
8,AATACATATAAAAGTACACACACACCCATATATATA [CACACA_site8220],7.61
9,ATAGAATACATATATGAACACACAGAGTTTTAAAAA [CACACA_site8879],6.89
10,TTTTTTTTTTGATGTTGTACATATATACTATATAAT [XGTACX_site1332],7.02
11,GAAAATAAAAAAAATAAAAAAAATAAAAAAAATTAT [XGTACX_negctrl_site443],6.71
12,TAAATATCTAAAGACTGTACAATTAAATATAAACAT [XGTACX_site1450],6.96
13,TTTTGTAACCTATGCACGCACACAAGAAAAAAACAA [CACACA_site3776],7.7
14,TTATAAAGAACACAGACACACAAAGAAAGAACCAAT [CACACA_site4175],7.23
15,CACAAATAAATACATACACACATATATACTCATATA [CACACA_site4379],6.99
16,TGGGCGTCATAATGAACACACAATTATATTATGACT [CACACA_site3910],6.81
17,TTACACAAATAGCTGCATTTATAAAATACAATTAAA [CACACA_negctrl_site241],6.79
18,TTTTGTCAATTTTAGATTTTTCAATACATGGATATT [CACACA_negctrl_site319],6.77
19,ATATATATATATTTATGTACGAATATGTTTAATTTA [XGTACX_site3986],8.93

row,Sequence,gcPBM binding intensity (ln)
1,ATATATATAATAATATGTACGGAAAAAGCTTAAGCT [XGTACX_site5661],7.22
2,AAATATATATATTTACGTACATATATACAAATAGAG [XGTACX_site6067],7.68
3,AAAAATAAAGAAACAGGTACGCATATATTAAGATAT [XGTACX_site8097],7
4,AATATATTCCACATGTGTACATATATATATATATAT [XGTACX_site8006],9.73
5,TTTCCTTCTACAAAAAATTTTATCAAGAGGAAGTAC [CACACA_negctrl_site926],7.37
6,TGTCACTACAAATGAGTGCATTAAATAATTTGGAAA,8.93
7,ATATGCAAAGAGTATAATCAAAATGTAAATAAATAA [GTGCAC_negctrl_site141],6.8
8,AATATTATTTATATTTGTACACAGTAATATAAAATA [XGTACX_site4884],6.95
9,CCATAGATATTTTATACACACATATAATATATTAAG [CACACA_site4363],6.99
10,CCACATTAAAAAAAAACACACATATATTATATATAT [CACACA_site1155],7.73
11,AATACATGAATATGTAGTACAGAAAAAAAAAATATA [XGTACX_site1945],7
12,AAAATGACATAATGGGGAATAGACATATACATAAAT [CACACA_negctrl_site1669],6.71
13,GTTACAGAGAATGTTGTGCACATATCAATAATATAT [GTGCAC_site9671],9.27
14,TATATATATATATATATTTTAAATGATATAAATGGT [TGCATGCA_negctrl_site152],9.66
15,AATTAATTAAATTAATGTACACATATATTTGTATTC [XGTACX_site2341],7.14
16,AAATGGTAAGAAAATAAATAAAGTTCTACCACATAA [CACACA_negctrl_site1542],6.77
17,TAGAAAGAATATAATTGTACAAATGTTGATAGATAA [XGTACX_site7259],7.22
18,ATATATATATATATATATATATATGTTTGATTTTTT [XGTACX_negctrl_site98],9.71
19,ATTTTTCTTTTATTAACACACATATAAATAAATACA [CACACA_site2876],7.33

row,Sequence,gcPBM binding intensity (ln)
1,TATAAACCATAATTAACACACAAAATAAGTTACATA [CACACA_site3227],6.87
2,ATAATAATAAAAATTATACATAAGTATATGCACATA [XGTACX_negctrl_site583],8.3
3,TTTTGCTTTTTTTTTCTTTTTTGTTTTATATATATT [CACACA_negctrl_site103],6.87
4,ACATATGGTATTTAAACACACAAAAAAGAAAGAAAA [CACACA_site991],6.91
5,TTGACATATAAGATATGTACTAATACACACACATAT [XGTACX_site1904],6.99
6,AAATAATAAAACAACACACAAATAGTTAAAATAGAA [CACACA_site5007],7.03
7,ACATTCTATATATACACACATACATAATAAAGAAAG [CACACA_site2771],7.27
8,TTTTAATGATATATGAGTACACATTGTTTTTTATAA [XGTACX_site1072],7.21
9,ATATAATGATGGAAAAGAAAAGAAATAAAAAAAAAA [CACACA_negctrl_site1170],6.66
10,AATAAAAAAAAACTCATGCACACAATATTATGAAAA [CACACA_site664],7.06
11,CATATATAGATATATACACACATACATACATACATA [CACACA_site7748],7.12
12,TGCATATGCATTATTTGTACATATGTAGATAATTAT [XGTACX_site6930],7.08
13,AAAAATTACAAATACAAACACACAAATGTTTTTCAT [CACACA_site3551],6.87
14,AATAAAATAAATATATGTACATATATATAACCATTA [XGTACX_site5549],7
15,TTTTTTTTTTTGAAATGTACATTCCAAAAACTGATA [XGTACX_site1495],6.99
16,TATATATATATATATTTTTTTTTTTTATGCACATGG [CACACA_negctrl_site1573],9.18
17,CTTTTGAACAGTTCATGTACTCAATTTTTTAATAGT [XGTACX_site6498],7.14
18,TAATACCTATGGTATAGTACGTATTATTTTATAGAG [XGTACX_site2078],6.82
